The source of these data is patent publication US20200397865A1 (ACCELERON PHARMA, published 2020).

The target in assay [1] is T1, GDF8 (UniProt O14793 267-375).
T1 construct: also called myostatin
T1 sequence (looked up): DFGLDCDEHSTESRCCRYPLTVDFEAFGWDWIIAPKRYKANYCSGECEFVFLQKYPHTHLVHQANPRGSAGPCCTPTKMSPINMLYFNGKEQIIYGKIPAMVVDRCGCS
Briefly: SPR (Biacore). (In SPR one partner is held on a chip, and binding of the other changes the refractive index at the surface.)

Assay [2] addresses T2, BMP10 (UniProt O95393 317-424).
T2 sequence (looked up): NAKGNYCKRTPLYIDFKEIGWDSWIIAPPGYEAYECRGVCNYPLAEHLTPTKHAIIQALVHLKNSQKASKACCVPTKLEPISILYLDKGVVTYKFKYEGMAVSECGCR
Briefly: SPR (Biacore).

A further assay concerns the target T3, activin B (UniProt P09529 293-407).
T3 sequence (looked up): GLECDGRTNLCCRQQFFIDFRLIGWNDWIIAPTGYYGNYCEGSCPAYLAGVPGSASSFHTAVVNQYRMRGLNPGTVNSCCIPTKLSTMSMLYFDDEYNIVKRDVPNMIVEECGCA
Briefly: similar Biacore binding assay. As to the method: (§1) GDF11 or activin A were immobilized on a Biacore™ CM5 chip using standard amine-coupling procedure. ActRIIA-hFc and ActRIIA-mFc proteins were loaded onto the system, and binding was measured. […] Using a similar binding assay, ActRIIA-hFc was determined to have high to moderate affinity for other TGF-beta superfamily ligands including, for example, activin B, GDF8, BMP6, and BMP10. ActRIIA-mFc behaved similarly.

Assay [3] addresses T1, GDF8. Briefly: similar Biacore binding assay. As to the method:
as §1

For assay [4], the target named is T2, BMP10. Briefly: similar Biacore binding assay. As to the method:
as §1

B1: ActRIIB(L79D 25-131)-hFc (Fc fusion)
chain: ETRECIYYNANWELERTNQSGLERCEGEQDKRLHCYASWRNSSGTIELVKKGCWDDDFNCYDRQECVATEENPQVYFCCCEGNFCNERFTHLPEAGGPEVTYEPPPTG[human IgG1 Fc and a few adjoining residues not written out]
notes: also called truncated GDF trap; GDF trap with truncated ActRIIB extracellular domain
Turning to B1, the binding result with GDF8 [1] and in the assay with BMP10 [2] was “binds” each time.

B2: ActRIIA-hFc (Fc fusion)
chain: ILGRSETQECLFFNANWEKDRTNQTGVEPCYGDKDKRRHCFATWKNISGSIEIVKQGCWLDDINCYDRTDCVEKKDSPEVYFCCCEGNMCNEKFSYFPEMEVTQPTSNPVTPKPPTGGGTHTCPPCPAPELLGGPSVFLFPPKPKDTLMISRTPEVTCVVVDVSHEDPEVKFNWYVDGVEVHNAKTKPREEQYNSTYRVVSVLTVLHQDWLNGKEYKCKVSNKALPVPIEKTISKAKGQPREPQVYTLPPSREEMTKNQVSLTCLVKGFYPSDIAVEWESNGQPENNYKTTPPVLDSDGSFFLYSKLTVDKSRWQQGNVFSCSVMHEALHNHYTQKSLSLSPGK
notes: also called ActRIIA-hFc fusion protein; ActRIIa-Fc
For the molecule B2, the binding result with activin B, with GDF8 [3] and with BMP10 [4] was “binds” throughout.
